Test results as given in PMC5739538.
These are yes or no findings as the source states them, for the method shown. Binding seen in cells or lysates may run through a third protein. Some binding calls cover weakened binding; strength is not graded here. Where a sequence is shown, tags or fusion partners need not be part of it.

What was measured:
[1] = biological target: T1, FLAG-ATGL (adipose triglyceride lipase) (not stated (human or mouse cDNA cloned)) (UniProt Q8BJ56); assay: co-IP; same anti-FLAG immunoprecipitates of FLAG-ATGL from hypoxic HCT116 cells; immunoblotting with anti-HIG2 and anti-FLAG antibodies
T1 sequence: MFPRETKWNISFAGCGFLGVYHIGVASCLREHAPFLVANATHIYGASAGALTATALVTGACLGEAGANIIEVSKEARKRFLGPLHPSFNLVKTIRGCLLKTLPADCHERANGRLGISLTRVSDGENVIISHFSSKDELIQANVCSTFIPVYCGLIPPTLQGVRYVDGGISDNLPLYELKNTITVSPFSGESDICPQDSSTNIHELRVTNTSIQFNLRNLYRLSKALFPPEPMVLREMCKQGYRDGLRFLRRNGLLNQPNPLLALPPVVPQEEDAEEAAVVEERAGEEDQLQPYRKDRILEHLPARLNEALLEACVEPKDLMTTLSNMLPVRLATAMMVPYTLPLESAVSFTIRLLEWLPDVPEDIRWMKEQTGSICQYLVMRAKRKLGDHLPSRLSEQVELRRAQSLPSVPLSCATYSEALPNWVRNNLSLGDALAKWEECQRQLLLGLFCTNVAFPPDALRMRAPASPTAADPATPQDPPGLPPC

HIG2-FLAG WT (human) = biological target: T2, HIG2-FLAG WT (human) (UniProt Q9Y5L2); assay: co-IP; HeLa cells co-transfected with Myc-ATGL and HIG2-FLAG WT or ∆7–11; immunoprecipitation by anti-FLAG gels, blots with anti-FLAG and anti-Myc; lysis buffer 50 mM Tris-HCl pH 7.4, 150 mM NaCl, 1% Triton X-100, 1 mM DTT, 4 hr at 4°C
T2 sequence: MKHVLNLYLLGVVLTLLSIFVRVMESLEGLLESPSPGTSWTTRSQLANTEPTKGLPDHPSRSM

HIG2-FLAG ∆7–11 (human) = biological target: T3, HIG2-FLAG ∆7–11 (human) (UniProt Q9Y5L2); assay: as above
T3 sequence: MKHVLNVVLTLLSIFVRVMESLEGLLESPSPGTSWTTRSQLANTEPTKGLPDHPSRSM

[2] = biological target: T4, Myc-ATGL (adipose triglyceride lipase), wild type (not stated (human or mouse cDNA cloned)) (UniProt Q8BJ56); assay: co-IP; HeLa cells co-transfected with HIG2-FLAG and Myc-ATGL or deletion mutants; immunoprecipitation by anti-Myc gels, blots with anti-FLAG and anti-Myc; lysis buffer 50 mM Tris-HCl pH 7.4, 150 mM NaCl, 1% Triton X-100, 1 mM DTT, 4 hr at 4°C
T4 sequence: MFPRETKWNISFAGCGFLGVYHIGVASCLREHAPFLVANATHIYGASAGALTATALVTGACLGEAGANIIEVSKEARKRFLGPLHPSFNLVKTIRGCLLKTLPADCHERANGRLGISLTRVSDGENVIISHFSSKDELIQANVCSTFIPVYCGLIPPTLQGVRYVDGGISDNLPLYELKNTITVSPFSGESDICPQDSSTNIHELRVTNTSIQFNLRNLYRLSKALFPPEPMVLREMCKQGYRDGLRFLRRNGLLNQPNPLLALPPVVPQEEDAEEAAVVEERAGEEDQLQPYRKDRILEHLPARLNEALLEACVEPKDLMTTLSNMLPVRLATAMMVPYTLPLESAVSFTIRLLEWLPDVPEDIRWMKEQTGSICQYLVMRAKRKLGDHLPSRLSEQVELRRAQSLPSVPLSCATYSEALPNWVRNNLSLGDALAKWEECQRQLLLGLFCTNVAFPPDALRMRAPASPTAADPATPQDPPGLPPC

[3] = biological target: T5, Myc-ATGLΔPT (not stated (human or mouse cDNA cloned)) (UniProt Q8BJ56); assay: as above
T5 sequence: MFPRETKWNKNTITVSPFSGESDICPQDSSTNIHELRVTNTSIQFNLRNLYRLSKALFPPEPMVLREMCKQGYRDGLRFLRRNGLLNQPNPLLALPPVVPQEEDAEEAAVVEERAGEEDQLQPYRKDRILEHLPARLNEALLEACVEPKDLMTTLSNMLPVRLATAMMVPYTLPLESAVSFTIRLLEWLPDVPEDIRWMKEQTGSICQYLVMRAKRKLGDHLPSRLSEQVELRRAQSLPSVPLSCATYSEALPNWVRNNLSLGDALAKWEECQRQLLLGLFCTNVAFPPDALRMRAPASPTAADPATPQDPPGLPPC

[4] = biological target: T6, Myc-ATGLΔHD (not stated (human or mouse cDNA cloned)) (UniProt Q8BJ56); assay: as above
T6 sequence: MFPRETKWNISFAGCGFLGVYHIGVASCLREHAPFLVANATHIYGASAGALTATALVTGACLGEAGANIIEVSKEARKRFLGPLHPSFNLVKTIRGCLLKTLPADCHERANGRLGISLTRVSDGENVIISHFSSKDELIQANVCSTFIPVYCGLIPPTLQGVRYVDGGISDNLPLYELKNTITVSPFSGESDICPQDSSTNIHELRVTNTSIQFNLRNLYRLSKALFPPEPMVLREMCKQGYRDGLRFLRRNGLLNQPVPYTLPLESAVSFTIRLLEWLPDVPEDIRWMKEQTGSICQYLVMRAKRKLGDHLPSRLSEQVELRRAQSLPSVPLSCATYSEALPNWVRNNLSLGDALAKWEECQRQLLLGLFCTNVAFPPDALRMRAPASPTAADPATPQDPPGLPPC

B1: HIG2 (hypoxia-inducible gene 2 protein), endogenous (protein, UniProt Q9Y5L2 1-63)
chain: MKHVLNLYLLGVVLTLLSIFVRVMESLEGLLESPSPGTSWTTRSQLANTEPTKGLPDHPSRSM
[1]
  binding: binds

B2: Myc-ATGL (adipose triglyceride lipase), wild type (enzyme, UniProt Q8BJ56 1-486)
chain: MFPRETKWNISFAGCGFLGVYHIGVASCLREHAPFLVANATHIYGASAGALTATALVTGACLGEAGANIIEVSKEARKRFLGPLHPSFNLVKTIRGCLLKTLPADCHERANGRLGISLTRVSDGENVIISHFSSKDELIQANVCSTFIPVYCGLIPPTLQGVRYVDGGISDNLPLYELKNTITVSPFSGESDICPQDSSTNIHELRVTNTSIQFNLRNLYRLSKALFPPEPMVLREMCKQGYRDGLRFLRRNGLLNQPNPLLALPPVVPQEEDAEEAAVVEERAGEEDQLQPYRKDRILEHLPARLNEALLEACVEPKDLMTTLSNMLPVRLATAMMVPYTLPLESAVSFTIRLLEWLPDVPEDIRWMKEQTGSICQYLVMRAKRKLGDHLPSRLSEQVELRRAQSLPSVPLSCATYSEALPNWVRNNLSLGDALAKWEECQRQLLLGLFCTNVAFPPDALRMRAPASPTAADPATPQDPPGLPPC
HIG2-FLAG WT (human)
  binding: binds
HIG2-FLAG ∆7–11 (human)
  binding: no binding

B3: HIG2-FLAG WT (protein, UniProt Q9Y5L2 1-63)
chain: MKHVLNLYLLGVVLTLLSIFVRVMESLEGLLESPSPGTSWTTRSQLANTEPTKGLPDHPSRSM
[2]
  binding: binds
[3]
  binding: no binding
[4]
  binding: binds
